# The list shows a part of the results.
# Columns and labels:
# Assay in all cases: glycan array binding signal (z-score within array); higher = stronger binding
# Details in all cases: glycan notation: IUPAC condensed, linker removed
# Fuc(a1-2)Gal = target: Fuc(a1-2)Gal
# Outline: (§1)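 The Consortium for Functional Glycomics database supplied 3228 glycan arrays, of which those lacking an available protein sequence were dropped. The binding signal, a within-array Z-score, was averaged across arrays of the same protein sequence and across linkers. Negative scores can be read as non-binding.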
# Fuc(a1-2)Gal(b1-3)GalNAc = target: Fuc(a1-2)Gal(b1-3)GalNAc
# Outline: as §1
# [1] = target: Fuc(a1-2)Gal(b1-3)GalNAc(a1-3)[Fuc(a1-2)]Gal(b1-4)Glc
# Outline: as §1
# [2] = target: Fuc(a1-2)Gal(b1-3)GalNAc(a1-3)[Fuc(a1-2)]Gal(b1-4)GlcNAc
# Outline: as §1
# [3] = target: Fuc(a1-2)Gal(b1-3)GalNAc(b1-3)Gal
# Outline: as §1
# [4] = target: Fuc(a1-2)Gal(b1-3)GalNAc(b1-3)Gal(a1-4)Gal(b1-4)Glc
# Outline: as §1
# [5] = target: Fuc(a1-2)Gal(b1-3)GalNAc(b1-4)[Neu5Ac(a2-3)]Gal(b1-4)Glc
# Outline: as §1
# Fuc(a1-2)Gal(b1-3)GlcNAc = target: Fuc(a1-2)Gal(b1-3)GlcNAc
# Outline: as §1
# [6] = target: Fuc(a1-2)Gal(b1-3)GlcNAc(b1-2)Man(a1-3)[Fuc(a1-2)Gal(b1-3)GlcNAc(b1-2)Man(a1-6)]Man(b1-4)GlcNAc(b1-4)GlcNAc
# Outline: as §1
# [7] = target: Fuc(a1-2)Gal(b1-3)GlcNAc(b1-2)Man(a1-3)[Fuc(a1-2)Gal(b1-3)GlcNAc(b1-2)Man(a1-6)]Man(b1-4)GlcNAc(b1-4)[Fuc(a1-6)]GlcNAc
# Outline: as §1
# [8] = target: Fuc(a1-2)Gal(b1-3)GlcNAc(b1-3)Gal(b1-4)Glc
# Outline: as §1
# [9] = target: Fuc(a1-2)Gal(b1-3)GlcNAc(b1-3)GalNAc
# Outline: as §1
# [10] = target: Fuc(a1-2)Gal(b1-3)GlcNAc(b1-3)[Fuc(a1-2)Gal(b1-3)GlcNAc(b1-6)]GalNAc
# Outline: as §1
# [11] = target: Fuc(a1-2)Gal(b1-3)GlcNAc(b1-3)[Gal(b1-4)GlcNAc(b1-6)]Gal(b1-4)Glc
# Outline: as §1
# [12] = target: Fuc(a1-2)Gal(b1-3)GlcNAc(b1-3)[Neu5Ac(a2-6)Gal(b1-4)GlcNAc(b1-6)]Gal(b1-4)Glc
# Outline: as §1
# [13] = target: Fuc(a1-2)Gal(b1-3)GlcNAc6S
# Outline: as §1
# [14] = target: Fuc(a1-2)Gal(b1-3)[Fuc(a1-4)]GlcNAc
# Outline: as §1
# [15] = target: Fuc(a1-2)Gal(b1-3)[Fuc(a1-4)]GlcNAc(b1-2)Man(a1-3)[Fuc(a1-2)Gal(b1-3)[Fuc(a1-4)]GlcNAc(b1-2)Man(a1-3)]Man(b1-4)GlcNAc(b1-4)GlcNAc
# Outline: as §1
# [16] = target: Fuc(a1-2)Gal(b1-3)[Fuc(a1-4)]GlcNAc(b1-2)Man(a1-3)[Fuc(a1-2)Gal(b1-3)[Fuc(a1-4)]GlcNAc(b1-2)Man(a1-6)]Man(b1-4)GlcNAc(b1-4)[Fuc(a1-6)]GlcNAc(b1-4)[Fuc(a1-6)]GlcNAc
# Outline: as §1
# [17] = target: Fuc(a1-2)Gal(b1-3)[Fuc(a1-4)]GlcNAc(b1-3)[Fuc(a1-3)[Gal(b1-4)]GlcNAc(b1-6)]Gal(b1-4)Glc
# Outline: as §1
# [18] = target: Fuc(a1-2)Gal(b1-3)[Fuc(a1-4)]GlcNAc(b1-3)[Gal(b1-4)GlcNAc(b1-6)]Gal(b1-4)Glc
# Outline: as §1
# Fuc(a1-2)Gal(b1-4)Glc = target: Fuc(a1-2)Gal(b1-4)Glc
# Outline: as §1
# Fuc(a1-2)Gal(b1-4)Glc6S = target: Fuc(a1-2)Gal(b1-4)Glc6S
# Outline: as §1
# Fuc(a1-2)Gal(b1-4)GlcNAc = target: Fuc(a1-2)Gal(b1-4)GlcNAc
# Outline: as §1
# [19] = target: Fuc(a1-2)Gal(b1-4)GlcNAc(b1-2)Man
# Outline: as §1
# [20] = target: Fuc(a1-2)Gal(b1-4)GlcNAc(b1-2)Man(a1-3)[Fuc(a1-2)Gal(b1-4)GlcNAc(b1-2)Man(a1-6)]Man(b1-4)GlcNAc(b1-4)GlcNAc
# Outline: as §1
# [21] = target: Fuc(a1-2)Gal(b1-4)GlcNAc(b1-2)Man(a1-3)[Fuc(a1-2)Gal(b1-4)GlcNAc(b1-2)Man(a1-6)]Man(b1-4)GlcNAc(b1-4)[Fuc(a1-6)]GlcNAc
# Outline: as §1
# [22] = target: Fuc(a1-2)Gal(b1-4)GlcNAc(b1-2)[Fuc(a1-2)Gal(b1-4)GlcNAc(b1-4)]Man(a1-3)[Fuc(a1-2)Gal(b1-4)GlcNAc(b1-2)Man(a1-6)]Man(b1-4)GlcNAc(b1-4)GlcNAc
# Outline: as §1
# [23] = target: Fuc(a1-2)Gal(b1-4)GlcNAc(b1-3)Gal(b1-4)GlcNAc
# Outline: as §1
# [24] = target: Fuc(a1-2)Gal(b1-4)GlcNAc(b1-3)Gal(b1-4)GlcNAc(b1-2)Man(a1-3)[Fuc(a1-2)Gal(b1-4)GlcNAc(b1-3)Gal(b1-4)GlcNAc(b1-2)Man(a1-6)]Man(b1-4)GlcNAc(b1-4)GlcNAc
# Outline: as §1
binder,measurement,setting,value
LecB PA14 (Pseudomonas aeruginosa) (protein) MATQGVFTLPANTQFGVTAFANSAGTQTVNVQVNNETVATFTGQSTNNAIIGSKVLNSGGGGKVQILVSVNGRSSDLVSAQVILANELNFALVGSEDSTDNDYNDAVVVINWPLG,glycan array binding signal (z-score),Fuc(a1-2)Gal,1.44
same,glycan array binding signal (z-score),Fuc(a1-2)Gal(b1-3)GalNAc,0.624
same,glycan array binding signal (z-score),[1],1.11
same,glycan array binding signal (z-score),[2],0.586
same,glycan array binding signal (z-score),[3],-0.106
same,glycan array binding signal (z-score),[4],0.395
same,glycan array binding signal (z-score),[5],-0.125
same,glycan array binding signal (z-score),Fuc(a1-2)Gal(b1-3)GlcNAc,0.145
same,glycan array binding signal (z-score),[6],1.32
same,glycan array binding signal (z-score),[7],0.699
same,glycan array binding signal (z-score),[8],-0.469
same,glycan array binding signal (z-score),[9],0.422
same,glycan array binding signal (z-score),[10],1.75
same,glycan array binding signal (z-score),[11],0.316
same,glycan array binding signal (z-score),[12],0.308
same,glycan array binding signal (z-score),[13],0.274
same,glycan array binding signal (z-score),[14],2.93
same,glycan array binding signal (z-score),[15],0.249
same,glycan array binding signal (z-score),[16],0.831
same,glycan array binding signal (z-score),[17],0.122
same,glycan array binding signal (z-score),[18],0.282
same,glycan array binding signal (z-score),Fuc(a1-2)Gal(b1-4)Glc,0.378
same,glycan array binding signal (z-score),Fuc(a1-2)Gal(b1-4)Glc6S,1.98
same,glycan array binding signal (z-score),Fuc(a1-2)Gal(b1-4)GlcNAc,1.12
same,glycan array binding signal (z-score),[19],-0.349
same,glycan array binding signal (z-score),[20],2.03
same,glycan array binding signal (z-score),[21],2.75
same,glycan array binding signal (z-score),[22],4.68
same,glycan array binding signal (z-score),[23],0.277
same,glycan array binding signal (z-score),[24],7.45

# — the supplement of paper PMC8728848
